# The whole screen tested about 400,000 compounds, of which about 2,200 (0.55%) were called active. The inconclusive results got no clear call from the source; some entries with a clear call stand among them for comparison. Calls follow the shape of the dose curve; as a rule, active = well fitted inhibition curve with a large enough effect; inconclusive = small, poorly fitted or top-dose-only effect, or another doubt; inactive = no such curve, though single readings can be large or run the other way. Potencies of inconclusive entries are doubtful fits and often do not repeat.
# Biological target: DNA polymerase kappa (Homo sapiens) (UniProt Q9UBT6)
# Assay: qHTS for Inhibitors of Polymerase Kappa
# Details: purified Pol kappa, fluorescent DNA synthesis assay, 10 min; series mostly up to 107 µM
# How it was run: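 Readout: fluorescence, taken kinetically at 0 and 10 min. Conditions: 10 nM Pol kappa, 15 min RT compound preincubation, 50 nM substrate final. Controls: enzyme-free buffer wells.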
# % is scaled to controls: 0 for no effect and ±100 for the full control effect; potency is read from the fitted curve at half-maximal effect; tags tell the direction and shape of the fitted curve.
# Sequence of UniProt Q9UBT6 (Q9UBT6 whole entry, looked up): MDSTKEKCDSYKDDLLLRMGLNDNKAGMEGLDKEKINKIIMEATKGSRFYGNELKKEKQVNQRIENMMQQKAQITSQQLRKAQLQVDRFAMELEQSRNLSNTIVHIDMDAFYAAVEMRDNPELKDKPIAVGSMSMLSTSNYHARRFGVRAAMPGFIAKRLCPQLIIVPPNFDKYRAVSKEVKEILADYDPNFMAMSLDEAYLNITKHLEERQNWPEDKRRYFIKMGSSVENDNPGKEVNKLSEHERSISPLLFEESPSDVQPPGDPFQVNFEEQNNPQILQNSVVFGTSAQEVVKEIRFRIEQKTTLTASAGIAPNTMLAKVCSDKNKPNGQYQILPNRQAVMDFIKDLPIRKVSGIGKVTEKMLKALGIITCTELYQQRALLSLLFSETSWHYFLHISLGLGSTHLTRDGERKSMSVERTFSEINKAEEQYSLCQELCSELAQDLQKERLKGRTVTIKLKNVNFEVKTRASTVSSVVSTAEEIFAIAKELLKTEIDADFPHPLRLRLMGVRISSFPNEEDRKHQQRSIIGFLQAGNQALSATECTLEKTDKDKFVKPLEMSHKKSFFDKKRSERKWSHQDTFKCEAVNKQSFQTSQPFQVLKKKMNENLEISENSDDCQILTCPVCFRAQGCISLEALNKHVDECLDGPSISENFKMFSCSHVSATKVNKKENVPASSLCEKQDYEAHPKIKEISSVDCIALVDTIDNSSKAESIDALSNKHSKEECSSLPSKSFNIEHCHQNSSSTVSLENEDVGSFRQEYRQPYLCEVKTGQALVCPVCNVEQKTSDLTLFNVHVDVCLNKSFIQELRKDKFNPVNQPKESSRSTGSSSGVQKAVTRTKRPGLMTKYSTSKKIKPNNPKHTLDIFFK
Compound,Potency,"activity, negative = inhibition"
Cc1coc2c1C(=O)C(=O)c1c-2ccc2c(C)cccc12,active: 79.4 µM,
O=C1NCCCC2c3c(cc(Br)c(O)c3Br)OC12N1CCCCC1 (centres undefined),"inconclusive: 31.6 µM [inhibitor, full curve]",
Nc1nc2c(c(=O)[nH]1)N(C=O)C(CNc1ccc(C(=O)NC(CCC(=O)O)C(=O)O)cc1)CN2 (centres undefined),"inconclusive: 35.5 µM [inhibitor, single point]",
CN(C)c1ccc(NC(=O)CSc2nc3c(c(=O)[nH]2)CCCC3)cc1,"inconclusive: 89.1 µM [inhibitor, single point]",
COc1ccccc1OC(C)C(=O)Nc1cccc(-c2nc3ccccc3o2)c1 (centres undefined),"inconclusive: 89.1 µM [inhibitor, single point]",
O=c1c2ccccc2ncn1-c1ccc(Cl)cc1,inactive,
COc1cccc(/C=N/NC(=O)c2ccc(N3CCCC3=O)cc2)c1,"inconclusive: 89.1 µM [inhibitor, partial curve, poor fit]",
O=C(NNC(=S)NC1CCCCC1)c1ccccc1Br,"inconclusive: 79.4 µM [inhibitor, partial curve, poor fit]",
O=c1cc(CN2CCN(S(=O)(=O)/C=C/c3ccccc3)CC2)c2ccc(O)cc2o1,"inconclusive: 70.8 µM [inhibitor, partial curve, poor fit]",
O=C1Oc2ccccc2C(=O)C1C(CC(O)c1ccc(-c2ccc(Br)cc2)cc1)c1ccccc1 (centres undefined),,inactive: -1.73% [at 19.4 µM]
N=C1/C(=C/c2coc3ccccc3c2=O)C(=O)N=C2SC(c3ccco3)=NN12,"inconclusive: 56.2 µM [inhibitor, partial curve, poor fit]",
CCCn1ncc(CN2CCN(CCc3ccccc3)C(CCO)C2)c1C (centres undefined),inactive,
O=C(CSc1nc(O)cc(=O)[nH]1)Nc1ccc2c(c1)CCC2,active: 79.4 µM,
CC(=O)OCC1OC(n2cnc3c(=O)[nH]cnc32)C(OC(C)=O)C1OC(C)=O (centres undefined),"inconclusive: 22.4 µM [inhibitor, single point]",
N#Cc1ccc(CSc2nnc(NC(=O)c3ccc(=O)[nH]c3)s2)cc1,inactive,
N#Cc1cccc(-c2ccc3ncnc(NCc4ccccc4)c3c2)c1,"inconclusive: 31.6 µM [inhibitor, single point]",
CCC(=O)N1CCc2cc(S(=O)(=O)CCC(=O)NCCc3ccc(OC)c(OC)c3)ccc21,"inconclusive: 89.1 µM [inhibitor, single point]",
Cc1ccc(NC(=O)CN2C(=O)N/C(=C/c3ccccc3OCc3cccc(C(=O)O)c3)C2=O)cc1,"inconclusive: 56.2 µM [inhibitor, partial curve]",
O=C(Nc1ccncc1)Nc1cccc(Cl)c1,inactive,
CN(C)N1C(N)=C(C#N)C(c2ccc(F)cc2)C2=C1CCCC2=O (centres undefined),inactive,
Cc1ccc(OCC(=O)NNC(=O)c2cc3ccccc3o2)cc1C,"inconclusive: 89.1 µM [inhibitor, single point]",
CSc1nc(N(CCO)CCO)c2sc3nc(-c4ccco4)c4c(c3c2n1)CCC4,active: 10 µM,

Compound,Potency,"activity, negative = inhibition"
CC(=O)c1cc2c(O)c(O)ccc2o1,"inconclusive: 79.4 µM [inhibitor, single point]",
CC(C)Nc1nc2ccccc2c(=O)[nH]1,inactive,
N#Cc1c(NC(=O)CSc2nnc(-c3ccco3)n2-c2ccccc2)sc2c1CCC2,"inconclusive: 79.4 µM [inhibitor, partial curve, poor fit]",
C[C@@H](NC(=O)/C(C#N)=C/c1ccc(O)c(O)c1)c1ccccc1,"inconclusive: 11.2 µM [inhibitor, partial curve, poor fit]",
Oc1cc(CNC2CCCCC2)c(O)cc1CNC1CCCCC1,active: 79.4 µM,
COc1cccc(C(=O)Nc2c3c(nn2-c2ccc(Cl)cc2)CS(=O)(=O)C3)c1OC,inactive,
CCc1ccc2[nH]c(=O)c(C(c3nnnn3CCOC)N3CCN(c4ccc(F)cc4)CC3)cc2c1 (centres undefined),inactive,
Cc1cc(SCC(=O)N/N=C/c2ccc(O)c(O)c2O)c(C)cc1Br,"inconclusive: 56.2 µM [inhibitor, partial curve]",
COC(=O)c1sc2nc(C)cc(C)c2c1N,inactive,
CCn1cc(S(=O)(=O)c2cccc(C)c2)c(=O)c2cc(F)c(N3CCCC(C)C3)cc21 (centres undefined),inactive,
CCN(CC)S(=O)(=O)c1ccc(C(=O)OCC(=O)NCc2ccco2)cc1,"inconclusive: 89.1 µM [inhibitor, partial curve, poor fit]",
COc1ccc2[nH]c3c(NCCN(C(C)C)C(C)C)ncnc3c2c1,"inconclusive: 79.4 µM [inhibitor, partial curve, poor fit]",
COc1cc(OC)c(NC(=O)CCCn2nc(C)c3sc4ccccc4c3c2=O)cc1Cl,"inconclusive: 56.2 µM [inhibitor, partial curve, poor fit]",
Cc1ccc(C)c(SCC(=O)OCC(=O)Nc2ncc(C(F)(F)F)cc2Cl)c1,inactive,
COc1ccc(/C=N/NC(=O)c2cc(-c3ccc4c(c3)OCO4)n[nH]2)cc1OC,"inconclusive: 0.708 µM [inhibitor, full curve, poor fit]",
CCN1CCN(c2ncnc3sc(C)c(-c4ccccc4)c23)CC1,"inconclusive: 89.1 µM [inhibitor, single point]",
C=C(CO)C1Cc2cc(C(C)=O)ccc2O1 (centres undefined),"inconclusive: 56.2 µM [inhibitor, partial curve, poor fit]",
COCCCN(C(=O)c1cc(-c2ccco2)nc2ccccc12)c1c(N)n(Cc2ccccc2)c(=O)[nH]c1=O,"inconclusive: 100 µM [inhibitor, single point]",
O=C(O)CN1C(=O)/C(=C\c2cccc(OCc3ccccc3F)c2)SC1=S,inactive,
COc1cc2[nH]c(=O)n(Cc3ccc(C(=O)NCc4ccccc4)cc3)c(=O)c2cc1OC,"inconclusive: 89.1 µM [inhibitor, single point]",
COc1cc(Cl)c(C)cc1NC(=O)c1cc2ccc3cccnc3c2[nH]1,inactive,
CC(=O)c1c(O)c(C)c(O)c2c1OC1=CC(=O)C(C(C)=O)C(=O)C12C (centres undefined),"inconclusive: 39.8 µM [inhibitor, single point]",

# — PubChem BioAssay AID588579 (National Center for Advancing Translational Sciences (NCATS), 2011)
